Whole data set: some 33,000 sequences, median “E-score (-0.5 to 0.5)” near -0.035, cut for the highest 2% near 0.35. This is one part of the list.
biological target: T1, Pdr3 (UniProt P33200); test: PBM E-score (8-mer binding enrichment) (E-score (-0.5 to 0.5)); higher = stronger / more preferred TF binding; most listed sequences are background and not binding sites; details: protein concentration: 200 nM; construct: GST-full length
T1 sequence: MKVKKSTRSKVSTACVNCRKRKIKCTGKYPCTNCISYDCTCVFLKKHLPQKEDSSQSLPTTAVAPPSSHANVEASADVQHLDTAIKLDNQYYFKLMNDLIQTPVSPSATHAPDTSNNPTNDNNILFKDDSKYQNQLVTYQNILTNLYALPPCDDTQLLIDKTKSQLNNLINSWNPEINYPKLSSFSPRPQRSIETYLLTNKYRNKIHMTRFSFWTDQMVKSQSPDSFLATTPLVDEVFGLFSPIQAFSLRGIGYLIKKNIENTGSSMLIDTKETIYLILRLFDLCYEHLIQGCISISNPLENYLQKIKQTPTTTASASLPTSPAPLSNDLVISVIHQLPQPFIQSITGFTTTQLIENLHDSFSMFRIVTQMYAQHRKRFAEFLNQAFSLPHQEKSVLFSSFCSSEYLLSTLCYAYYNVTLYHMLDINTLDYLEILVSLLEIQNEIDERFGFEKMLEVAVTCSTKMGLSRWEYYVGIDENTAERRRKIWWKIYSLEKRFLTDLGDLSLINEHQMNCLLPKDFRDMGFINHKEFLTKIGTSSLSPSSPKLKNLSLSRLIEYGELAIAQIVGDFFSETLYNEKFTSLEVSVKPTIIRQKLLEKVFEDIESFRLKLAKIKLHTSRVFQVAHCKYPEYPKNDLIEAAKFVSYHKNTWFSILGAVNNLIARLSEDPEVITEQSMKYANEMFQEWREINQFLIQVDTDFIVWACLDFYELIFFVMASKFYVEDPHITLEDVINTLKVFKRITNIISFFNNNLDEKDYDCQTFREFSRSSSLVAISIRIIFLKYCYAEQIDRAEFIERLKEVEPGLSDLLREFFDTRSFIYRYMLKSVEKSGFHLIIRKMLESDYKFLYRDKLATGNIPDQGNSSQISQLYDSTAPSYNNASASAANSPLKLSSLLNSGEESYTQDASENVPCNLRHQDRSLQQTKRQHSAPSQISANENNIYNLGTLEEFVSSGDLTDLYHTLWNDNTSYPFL
Method in brief: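 For each ungapped eight-base word taken together with its reverse complement, the Universal PBM Analysis Suite assigned an E-score. Binding data came from GST-tagged yeast transcription factors, applied at about 100-200 nM, on universal all-10-mer Agilent arrays made double-stranded by primer extension. Fluorescent anti-GST marked bound protein, and scans were normalised with masliner.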

Row | Sequence | PBM E-score
1 | ACCCGGCA | 0.256
2 | CCGCAATA | 0.224
3 | CAACAAAG | -0.0163
4 | ACAGTACG | 0.0261
5 | GATACGAA | 0.033
6 | CAAATCGA | -0.256
7 | ATACGTTC | -0.216
8 | GGTGCTTA | -0.163
9 | ACTCTATC | -0.109
10 | CGTTTGAA | -0.0722
11 | CGTACGAG | -0.135
12 | GCGTGAAC | -0.122
13 | CTATGAAG | -0.103
14 | AAGGTGGC | -0.0289
15 | ATGCGCAT | 0.165
16 | CGATGAGC | 0.0308
17 | AATAGTAC | -0.0262
18 | ATCGGGCG | 0.0205
19 | ACGCATGG | 0.0281
20 | GATATCGC | 0.101
21 | ACGTACGG | 0.0946
22 | GAATAGAA | 0.165
23 | AGACCGAA | 0.0314
24 | CTGCTAAG | -0.274
25 | AAGCCGTA | 0.0211

Row | Sequence | PBM E-score
26 | GTGGGTCA | -0.0644
27 | AAGGCAGT | -0.037
28 | AAGGCATA | -0.143
29 | ACACAACG | -0.00062
30 | ACTAGACC | -0.0104
31 | AACTCGCC | 0.0238
32 | ATCGGTGC | 0.032
33 | AATCATTC | 0.179
34 | ACTTACCG | 0.233
35 | CACCTGTA | -0.224
36 | GGAGGCAC | -0.177
37 | ATACAAAG | 0.0438
38 | GCACACGA | -0.0879
39 | CGAGGGCA | 0.00512
40 | ATCGCTAA | -0.0537
41 | TACCCCTA | -0.0685
42 | ATATCAAA | 0.0882
43 | TAGATCTA | -0.243
44 | AGCCGTTC | 0.0546
45 | CGCAAGCG | -0.0182
46 | GGTCGGAC | 0.15
47 | AGTGTAGA | -0.358
48 | GACAGAGC | -0.289
49 | AACTGGGA | 0.059
50 | GCTACCCA | -0.166

Row | Sequence | PBM E-score
51 | AAAAAGGG | 0.00252
52 | AGGGAAAA | -0.0229
53 | AGAGGGTC | -0.288
54 | CTGCATTC | 0.0676
55 | CAACACAC | -0.121
56 | AAGTCGTC | -0.211
57 | ATGATAAA | 0.0837
58 | CCCCAAAA | -0.0572
59 | ATATACGG | 0.0527
60 | CATCTAGG | -0.184
61 | CTTCGTAA | -0.21
62 | CCTAATAA | -0.201
63 | ATAAGCCC | -0.171
64 | GGATACGA | -0.119
65 | ACTCGATG | -0.0837
66 | CAGGCCTG | 0.122
67 | CGCAGGGA | -0.0973
68 | CCTCAGGA | -0.107
69 | AAAACCCA | -0.00067
70 | GCTCGCAA | -0.0425
71 | ACTGGGTG | -0.11
72 | ACTCTTTC | -0.111
73 | CCTTCTGA | -0.144
74 | ATCTAGAA | -0.197
75 | AGTGTTGG | 0.123

Row | Sequence | PBM E-score
76 | GAGGCGCC | 0.00938
77 | CGTTGTTA | -0.0419
78 | CGAGTACG | 0.0664
79 | CAACTACG | 0.0135
80 | TAGGAAGA | -0.204
81 | CACCCCAC | 0.0293
82 | ACCAAGGT | -0.0204
83 | TCTGTAAA | -0.00165
84 | ACCATCCT | -0.236
85 | AAATATCG | 0.0646
86 | CGCTGGGA | 0.103
87 | AGACGGGC | 0.0159
88 | AAGTCTCT | -0.344
89 | ATCTACAG | 0.15
90 | CAATGTGA | -0.068
91 | GAGCTCAC | 0.0138
92 | GCTGGCCA | -0.0882
93 | CCTACTTA | -0.273
94 | ACAGACAA | 0.1
95 | CGCACGCA | -0.0248
96 | CAGGGACA | 0.0593
97 | GTATTTCA | -0.159
98 | AGCTCGGA | 0.316
99 | ACGGATTC | 0.306
100 | TATGCGGA | 0.321

Row | Sequence | PBM E-score
101 | CGAATAAA | 0.0582
102 | CGAGGCAA | 0.0619
103 | TCACTCGA | -0.212
104 | AGTTGCTA | 0.0756
105 | CAGACACA | -0.0198
106 | CACGGGCG | 0.248
107 | CTAGGGTC | -0.294
108 | AGGCACAG | -0.221
109 | ATCGGTAA | 0.0906
110 | AGCCTTGA | -0.204
111 | ACAAAGAA | -0.0116
112 | GAATAAGC | -0.115
113 | GATCGGAA | 0.424
114 | ATTAACTG | -0.0295
115 | GATAATGC | 0.0805
116 | GTCTCCTA | -0.12
117 | CTGAGGCC | 0.0607
118 | TGCTAGAA | -0.131
119 | AACAGCGT | -0.0559
120 | CGTGACGC | -0.0528
121 | CAAACCCC | -0.166
122 | AATCAGCT | -0.0592
123 | AGCAGTTA | -0.0291
124 | CTTCTCTA | -0.212
125 | AATACCTC | -0.0269

Row | Sequence | PBM E-score
126 | AAGCCGCC | 0.0806
127 | ACTAAGGG | 0.0252
128 | AGAGTACC | -0.161
129 | ATGATCAC | -0.0211
130 | AACATATT | -0.0137
131 | GGTCATTA | -0.209
132 | CACCGTGA | 0.0395
133 | ACGCCGCT | 0.0408
134 | ACCCGCAG | 0.173
135 | AAACCTAC | -0.103
136 | CATAGTCC | -0.0477
137 | AGAACCAT | -0.111
138 | GATCTGCA | -0.0215
139 | TAATTTAA | 0.0774
140 | ACGCAAGC | -0.131
141 | TCTTCTAA | -0.179
142 | AACGCAAA | 0.0603
143 | ATAACGCG | 0.168
144 | GCATTAAA | -0.19
145 | CGGCGTAC | 0.0859
146 | GATAGCGC | 0.00808
147 | AGATGGCC | 0.0525
148 | ACTACTCG | 0.155
149 | CCGAAGGC | 0.0757
150 | ACAAAAAT | -0.0114

Row | Sequence | PBM E-score
151 | AACACCAT | 0.0653
152 | AGAAGTGA | -0.146
153 | ATCTTAGC | -0.2
154 | CCACTGCC | 0.0187
155 | CTCAAGAA | -0.131
156 | GGATGAAA | 0.207
157 | CATGGAAC | -0.0483
158 | CTTCTAGC | -0.247
159 | GATTGCTA | -0.175
160 | AGCCCTTG | -0.198
161 | TAGATCGA | -0.0685
162 | GGGAGAAC | 0.00594
163 | ATTGTTTG | -0.0829
164 | TCAGTTCA | -0.0302
165 | GTGTGAAC | -0.0574
166 | AACCCTGT | -0.104
167 | AAGGTAAC | -0.00773
168 | ACTTGCAA | -0.0567
169 | TGGGCACA | 0.00672
170 | ATGGGCAA | 0.0327
171 | TCGACAGA | -0.14
172 | CGCGACCC | 0.00268
